The other results are listed elsewhere or left out.
B1: chr16:87831719:87831834:-|3pUTR|ENSG00000103257|msi1_unk|total|mutant (ssRNA)
RNA: GGGAGUUCUACAGUCCGACGAUCCCUGCGUUUGGAGGCCCCUGGGCUCUCACCCAGUCCCCACCCGCCUGCAGAGAGGGAACCCGGGCACCCCUUGUUUCUGUUGUUCCCGUGAAUUUUUUUCGCUAUGGGAGGCAGCCGAGGCAACAGAGGAUUGAGCAUCA
B2: chr14:106421710:106422018:-|CDS|ENSG00000211959|control|control|control (ssRNA)
RNA: GGGAGUUCUACAGUCCGACGAUCCUAUUAUAGUGGGAGCACCUACUACAACCCGUCCCUCAAGAGUCGAGUCACCAUAUCCGUAGACACGUCCAAGAACCAGUUCUCCCUGAAGCUGAGCUCUGUGACCGCCGCAGACACGGCCAACAGAGGAUUGAGCAUCA
B3: chr5:136977529:136977630:-|3pUTR|ENSG00000152377|msi1|total|mutant (ssRNA)
RNA: GGGAGUUCUACAGUCCGACGAUCACAAGCCAUCUCUUUCAUUUCUGCUUGAAGCCCCUUGGCUGCAGCAAUCCUGUCUGCCACCGGUUUCUUCCUUCCUUACCUACUCAAGGGCUUUUUCUAAGGCAUGCACACAUAUCUCCUCAACAGAGGAUUGAGCAUCA
B4: chr15:30360565:30362292:-|three_prime_utr|ENSG00000166664|control|control|control (ssRNA)
RNA: GGGAGUUCUACAGUCCGACGAUCACAACUCCAGUGUUCCCUUCUGGCUGUCAGUCGUGUUGCUUACGGUUUCUUUGUUACUUUAGGUAGUAGAAUCUCAGCACUUUGUUUCAUAUUCUCAGAUGGGCUGAUAGAUAUCCUUGGCAACAGAGGAUUGAGCAUCA
B5: chr10:84150713:84150851:+|CDS|ENSG00000165678|unk|FALSE|unique (ssRNA)
RNA: GGGAGUUCUACAGUCCGACGAUCUCUUCCACCUACCACCGUGGCUGGUGCCACUCUUUACUCAGUGGCAAUGUACGGUGGAUUAGUUCUUUUCAGCAUGUUCCUUCUGUAUGAUACCCAGAAAGUAAUCAAGCGUGCAGAAGUCAACAGAGGAUUGAGCAUCA
B6: chr22:42060953:42061055:-|CDS|ENSG00000198951|unk|total|mutant (ssRNA)
RNA: GGGAGUUCUACAGUCCGACGAUCCCAGGAAAAAUCUCUCAUCGAAGUGUACAUGCGGCCUCUGUCCAACAAGGCCCGCGCCUCCGUCUUCUUCAGCUGCAGGACCGAUAUGCCUUAUCGCUACCACUCCUCCCUUGGCCAGCUCAACAGAGGAUUGAGCAUCA
B7: chr1:109310645:109310811:-|3pUTR|ENSG00000134243|msi1|total|mutant (ssRNA)
RNA: GGGAGUUCUACAGUCCGACGAUCAGGGUAACGGGGCUGGCCUGGCAUCCGUCAUUAUUCCGUUUCCAGGCCAACCAUCCAGACCGAGAUUCCCUCUUUCCUUUGAGCAGUGCUCUCAAGAGCUCCGUGCCUGUCCACAAUGACCAACAGAGGAUUGAGCAUCA
B8: chr19:51078814:51078951:-|CDS|ENSG00000129437|control|control|control (ssRNA)
RNA: GGGAGUUCUACAGUCCGACGAUCUCUCUGCAAUGCGUGAACAUCAACAUCUCCCCGGAUGAGGUGUGCCAGAAGGCCUAUCCUAGAACCAUCACGCCUGGCAUGGUCUGUGCAGGAGUUCCCCAGGGCGGGAAGGACUCUUGUCAACAGAGGAUUGAGCAUCA
B9: chr17:76291014:76294021:-|CDS|ENSG00000129646|control|control|control (ssRNA)
RNA: GGGAGUUCUACAGUCCGACGAUCAGAAUGAGUUCUAGUUUCCCCACGGCAGUGGAGACAUUUCAUCUGAUGGGAGAGCUCAGUAGCCUCUAUGUGGGGCUAAAGGAGAGUAUGAAGGAUCUGGAUGAGGAGCAGGCCGGCCAACAACAGAGGAUUGAGCAUCA
B10: chr4:42087128:42087229:+|3pUTR|ENSG00000014824|msi1|FALSE|unique (ssRNA)
RNA: GGGAGUUCUACAGUCCGACGAUCAUUUUGUAUAAUAUAGUUCAUACUGUGUCUGUGAGUUUCUUCAGUUACAAAUGGGCAUUUAGUAUAGUUAUAUUGACUAUAACAUGUAAGUAAAUAGCUUUCUACUGACCCUAAGUUAUCCAACAGAGGAUUGAGCAUCA
B11: chr9:83661418:83661519:-|3pUTR|ENSG00000135018|msi1|total|mutant (ssRNA)
RNA: GGGAGUUCUACAGUCCGACGAUCUACCGUUGGGUGACCAGAUUUUGUCCUGCAUCUGUCCAGUUUAUUUGCUUUUUAAACAUCCGCCUAUGGCCGUAAUUUAUGCCGAAUAAAAGCAUUAAAAAGAAGCAAAUCAUUUGCACUCAACAGAGGAUUGAGCAUCA
B12: chr16:3436009:3436110:-|3pUTR|ENSG00000167981|unk|total|mutant (ssRNA)
RNA: GGGAGUUCUACAGUCCGACGAUCAUUAAAAUGAAGGCUCUUGCUAAAGUUAUUUUAAUUUUGUUUACGCCGUUUCUGACUUUCCGAAGGAGGAGAAUUUAUUUAUAUUUUGCCAGUUCUGCAGACAUAUCCCGGAAAGUAAAUCAACAGAGGAUUGAGCAUCA
B13: chr4:138171744:138171845:-|3pUTR|ENSG00000151012|msi1|total|mutant (ssRNA)
RNA: GGGAGUUCUACAGUCCGACGAUCAGGAGUCAGUUAUUUUUAUUCAUAUAUUUCCGCAUAUUCGAACUAAUUUCUAAGAAAUUCCGUUAUAACUCUAUGCCGUUACCGAAAGUGAAUAUGCAGUUAUUCUAUGAGUCGCACAAUCAACAGAGGAUUGAGCAUCA
B14: ENSG00000106683:stop:overlap|stop_codon|ENSG00000106683|stop_codon|NA|stop_codon (ssRNA)
RNA: GGGAGUUCUACAGUCCGACGAUCGCUCUGCCCGGCAGAAACCUGUCUUCGCAAGGACCUGGGUCGCUCUGAGUCCCUCCGCGUAGUCUGCCGGCCACACCGCAUCUUCCGGCCGUCGGACCUCAUCCACGGGGAGGUGCUGGGCAACAGAGGAUUGAGCAUCA
B15: ENSG00000096717:stop:overlap|stop_codon|ENSG00000096717|stop_codon|NA|stop_codon (ssRNA)
RNA: GGGAGUUCUACAGUCCGACGAUCAUGAAGCUAUAUCUGUGAAACAGGAAGUAACAGACAUGAACUAUCCAUCAAACAAAUCAUAGUGUAAUAAUUGUGCAGGUACAGGAAUUGUUCCACCAGCAUUAGGAACUUUAGCAUGUCCAACAGAGGAUUGAGCAUCA
B16: chr3:149172415:149172516:+|3pUTR|ENSG00000163755|unk|FALSE|unique (ssRNA)
RNA: GGGAGUUCUACAGUCCGACGAUCUUACCGUGUAGUGGUAACUAUUCACUUCUUAAUUUAUGACCUCAAUCAAUUUAAUUGUCUAGAAUGUAAAAAGUCUUUAAGACAUAAGAAUUCCUCAAAGAAGCCAUACAUUUUUUAAGGCAACAGAGGAUUGAGCAUCA
B17: chr1:213005240:213005351:-|CDS|ENSG00000174606|unk|FALSE|unique (ssRNA)
RNA: GGGAGUUCUACAGUCCGACGAUCGAACCCAGUGGAAUUCUUCCGCCCUGAUAUUUCUCUGUUGGACAGAGACAAUGUUGGAUUAGUUUUACUCUUACAGCCCAAAAUUCCAUAUGCUGCCUGCCCUGCAAUCUGCGUAGCAAACAACAGAGGAUUGAGCAUCA
B18: chr8:12150890:12151093:-|CDS|ENSG00000254866|control|control|control (ssRNA)
RNA: GGGAGUUCUACAGUCCGACGAUCGAUGUCUGCAAAGUAGUAGAAGAUCAAAUUGGUGCCUGCCGAAGAAGGAUGAAGUGUUGUAGAGCAUGGUGGAUUUUAAUGCCAAUUCCAACACCACUUAUCAUGUCAGAUUAUCAAGAACAACAGAGGAUUGAGCAUCA
B19: chr6:109001311:109001429:-|CDS|ENSG00000080546|unk|FALSE|unique (ssRNA)
RNA: GGGAGUUCUACAGUCCGACGAUCUGCUGCUUUGGGCCGUUUGGAUAACAUUACGUUAGUGAUGGUUUUCCACCCACAAUAUUUAGAAAGUUUCUUAAAAACUCAGCACUAUCUACUGCAAAUGGAUGGGCCGUUACCCCUACACAACAGAGGAUUGAGCAUCA
B20: ENSG00000124766:be:win_1101|CDS|ENSG00000124766|bound_else_gene|NA|bound_elsewhere_windowed (ssRNA)
RNA: GGGAGUUCUACAGUCCGACGAUCCUCGCCCGCCCCGUCCAGCGCGCCCUCGCACGCGUCCUCCUCGGCCUCGUCCCACUCCUCCUCUUCCUCCUCCUCGGGCUCCUCGUCCUCCGACGACGAGUUCGAAGACGACCUGCUCGACAACAGAGGAUUGAGCAUCA
B21: ENSG00000148396:stop:overlap|stop_codon|ENSG00000148396|stop_codon|NA|stop_codon (ssRNA)
RNA: GGGAGUUCUACAGUCCGACGAUCCCACCUCCGGGAGCUCAAGGCUAGGGAGGAUUGGCCAGAGGAAGCACCUGGUGCUGAACUAGGCUUGCCCUGCUGUGAACUUGCACUUGGAGCCCUGACGCUGCUGUUCUCCCCGAAGAACAACAGAGGAUUGAGCAUCA
B22: ENSG00000198589:be:win_4101|CDS|ENSG00000198589|bound_else_gene|NA|bound_elsewhere_windowed (ssRNA)
RNA: GGGAGUUCUACAGUCCGACGAUCUAUGGUCAUGGCUUGUGGGGGUAUACUGCCAUUGCUUUCAGCUGCUACAUCGGCUACACAUGAACUGGAAAAUAUUGAACCUACUCAAGGCCUUUCAAUAGAAGCCUCUGUGACAUUUUUCAACAGAGGAUUGAGCAUCA

Target: MSI1 full-length (mouse, UniProt Q61474 1-362)
Test: nsRBNS (natural sequence RNA bind-n-seq); RBNS binding buffer (assumed for nsRBNS): 25 mM Tris pH 7.5, 150 mM KCl, 3 mM MgCl2, 0.01% Triton X-100, 500 ug/ml BSA, 20 U/ml SUPERase-In, 4 C; UNK is unkempt and MSI1 is Musashi-1; names of the RNAs are library labels; protein concentration not given here; high values mean tight binding

Chain of UniProt Q61474 (Q61474 whole entry): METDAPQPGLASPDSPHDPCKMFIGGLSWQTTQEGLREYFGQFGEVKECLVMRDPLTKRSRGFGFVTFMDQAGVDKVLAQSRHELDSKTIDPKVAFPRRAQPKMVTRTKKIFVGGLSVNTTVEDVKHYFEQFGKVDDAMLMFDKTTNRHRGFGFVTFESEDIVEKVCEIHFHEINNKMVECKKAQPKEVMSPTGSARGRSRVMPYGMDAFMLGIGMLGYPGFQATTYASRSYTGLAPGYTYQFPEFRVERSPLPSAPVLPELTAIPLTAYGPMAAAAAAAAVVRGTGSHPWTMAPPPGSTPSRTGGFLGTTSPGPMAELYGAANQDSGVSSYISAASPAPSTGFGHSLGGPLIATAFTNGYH

For B1, which binding signal is on record?
The binding signal was 0.373 enrichment R.

For B2, which binding signal is on record?
The binding signal was 0.635 enrichment R.

B3 was tested. Which binding signal did it give?
Its binding signal is 0.518 enrichment R.

Which binding signal does the source give for B4 here?
Its binding signal is 1.43 enrichment R.

How did the binding signal turn out when B5 was run?
Its binding signal is 0.465 enrichment R.

Which binding signal does the source give for B6 here?
The binding signal was 0.589 enrichment R.

B7 was tested. Which binding signal did it give?
Its binding signal is 0.465 enrichment R.

How did the binding signal turn out when B8 was run?
The binding signal was 0.491 enrichment R.

For B9, which binding signal is on record?
The binding signal was 0.533 enrichment R.

With B10 as the binder, how does the binding signal read?
Its binding signal is 2.94 enrichment R.

Which binding signal does the source give for B11 here?
Its binding signal is 0.203 enrichment R.

For B12, which binding signal is on record?
Its binding signal is 0.68 enrichment R.

How did the binding signal turn out when B13 was run?
The binding signal was 0.833 enrichment R.

Which binding signal does the source give for B14 here?
Its binding signal is 0.548 enrichment R.

With B15 as the binder, how does the binding signal read?
The binding signal was 0.449 enrichment R.

For B16, which binding signal is on record?
Its binding signal is 5.75 enrichment R.

Which binding signal does the source give for B17 here?
The binding signal was 0.68 enrichment R.

B18 was tested. Which binding signal did it give?
The binding signal was 0.515 enrichment R.

How did the binding signal turn out when B19 was run?
Its binding signal is 2.55 enrichment R.

With B20 as the binder, how does the binding signal read?
The binding signal was 0.794 enrichment R.

B21 was tested. Which binding signal did it give?
The binding signal was 0.737 enrichment R.

For B22, which binding signal is on record?
The binding signal was 0.328 enrichment R.
